This is an account of results in the supplement of paper PMC11417369.

Some of the results follow.

The test system of the test is PfSIP2 AP2 domain 1 (GST-tagged). The experiment in a line: gcPBM binding intensity (ln(normalized median fluorescence intensity)); higher = stronger DNA binding. The essentials: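 DNA-binding domains from P. falciparum, fused to GST and produced in E. coli, were put on an Agilent 4 × 180k double-stranded probe array for 1 h in 1× PBS holding 1% milk, 0.2 mg/ml BSA, 0.5% salmon testes DNA and 0.03% Triton X-100. Probes were primer-extended, 36 bp long and drawn from intergenic genomic regions, with negative controls included. After Alexa488 anti-GST antibody detection and a 488 nm scan, binding intensity was set as the highest Masliner-normalised natural-log median intensity across replicate spots of either probe orientation.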
AGTGTGTGTAATAAAGTGCATTAAAAATGACACGTA: the “gcPBM binding intensity (ln)” value stood at 8.55.
As for “TAACACATATATTGTTGTACATTCAAACTGAAAAAT [XGTACX_site5565]”, the figure is 7.02.
“TTTTTTTTATTAAAAAGTACTAAACAAATTATATAT [XGTACX_site121]”: the “gcPBM binding intensity (ln)” value is 7.26.
Next, “ATATATATATATATGTGTACATATGTATATATATCT [XGTACX_site2930]”: 9.72; “CCCATGTAATGAACATGTACATAATAATTTATAAAT [XGTACX_site8687]”: 7.03; “AGATGGAGAAAGTTATGTACACATATATAAATATGT [XGTACX_site6150]”: 7.14.
As for “TATATACATATGTGATGTACATTTTTTGTAATATAA [XGTACX_site6985]”, the figure is 7.26; as for “ATGTCTACAGTTTTTGCACACATATAAATAAAAAAA [CACACA_site3600]”, 7.68.
As for “ATTTTTTTTTTTTTTTTTTTTGAGAAGAACTTTTTC [CACACA_negctrl_site1019]”, the figure is 6.81; as for “AAACATCATAAATATACACACATATTTATATTTATA [CACACA_site6437]”, 7.19; as for “CCATAACTCATATGCACACATAAATATTACATATAT [CACACA_site3821]”, 7.71.
“TTTTAAAAAGAAAAAAATAACATACATATATATATA [CACACA_negctrl_site240]”: the “gcPBM binding intensity (ln)” value turned out to be 8.83.
Turning to “CTATTTTTTGTATAAACATGCATATAGTAGATATGG [TGCATGCA_site670]”, the “gcPBM binding intensity (ln)” value was determined as 7.1.
Next, “TTTAATATTTTTTTTTGTACTTATTTGTAGAAATAT [XGTACX_site3046]”: 7.24.
As for “AGGCTCATTTTTTTTAGTACATCAAAAAAAAAAAAA [TGCATGCA_negctrl_site591]”, the figure is 7.26.
Next, “TGTATGTTTATTTGATGTACGGTCATACATATAAAT [XGTACX_site5176]”: 6.87; “AAATTCATATGAATTTGTACGGACATAAATATCTTC [XGTACX_site1838]”: 6.94.
For the sequence “ATTCATAATATTATAACACACGCTTATTACATAAAG [CACACA_site980]”, the “gcPBM binding intensity (ln)” value came to 7.2.
As for “TTTTACATATACATGTGTACATAACAAAGAATGTTT [XGTACX_site2406]”, the figure is 7.08.
Next, “CGCATGTATTTTGTGTGTACTAATTATAATCAACTT [XGTACX_site4709]”: 7.2; “TAATATTGTATTTATGTACACACATTTTTGGAATAT [CACACA_site8371]”: 7.33.
Next, “AGTGTATTAATTCTCACACACTAAGAAAAAAAAAAA [CACACA_site6007]”: 6.82; “TTTTTTAATAAATGGTGTACATATTTTTTTTATACT [XGTACX_site8584]”: 7.54.
Consider TGAGCACAAATACAGGTGCATATAAAATATATGACG, for which the “gcPBM binding intensity (ln)” value is 10.5.
Next, “AGAGGCCAGCTTTCTCTTCTAAACATGTACAAAAAT [GTGCAC_negctrl_site98]”: 6.78.
As for “AAAAAAATAAAATGTTCACACATTTCACAATTACTT [CACACA_site4859]”, the figure is 6.76; as for “ATATATATATAGTGCACACATATAAAATATATATAA [CACACA_site2745]”, 10.3.
Next, “TATAATATATATAGGAGTACGTATGTATATTTATAA [XGTACX_site3521]”: 7.11; “TTTACAGATACTTGCTCACACATATGTATAAAAATA [CACACA_site4928]”: 7.22; “AATAGTTAAATGTACACACTAACTACATGGAATATA [CACACA_site3262]”: 7.02.
Regarding “TATATATAAAACATATGTACATATATATATATATAT [XGTACX_site419]”, the “gcPBM binding intensity (ln)” value came out at 9.57.
As for “ATATTTTATAATTTTACACACCATATAAAATAATTC [CACACA_site2797]”, the figure is 7.16.
As for “ACATGAAACTATAAACGTACATACATACATATATAT [XGTACX_site5011]”, the figure is 7.48; as for “AAGTAAAAAAATAGCACACACACAAAAACACCCACA [CACACA_site1291]”, 7.58.
Take “AAAAAAAAAGGTACTACACACTATTATCAATAGAAA [CACACA_site91]”: the “gcPBM binding intensity (ln)” value came to 6.71.
For “TACTTATTATGAAACACACACCAAAACTACAGAATA [CACACA_site6265]”, the “gcPBM binding intensity (ln)” value stood at 7.18.
As for “CAAAATAAAAAATTCACACACATATAAATATAAATA [CACACA_site7065]”, the figure is 6.89; as for “ATTTAATTTATTATGTGTACTTATTTAATTAAATTA [XGTACX_site3171]”, 6.95.
Next, “TTATATATTTATAAATGTACATATAATTTTTTTATA [XGTACX_site4696]”: 6.92; “CTGATATATAGATGTAGTACATAAAAATGACGAATT [XGTACX_site5612]”: 7.13.
For the sequence “ATATTTTTATTTAAATCACATCATTTTGTTTATTTG [CACACA_negctrl_site1056]”, the “gcPBM binding intensity (ln)” value was found to be 6.95.
Next, “CATATAATTATTGAAAGTACATACAAATAAAAAGAT [XGTACX_site6535]”: 7.56; “ATATATATATGTATATGTACATATATATACACATAT [XGTACX_site140]”: 8.44; “TAAATATATTTATATTGTACATTTATGTTGATACCA [XGTACX_site228]”: 6.88.
“TTTTGTGAATTTTAGATTTTTTAATACAAGAATATT [CACACA_negctrl_site606]”: the “gcPBM binding intensity (ln)” value was found to be 6.85.
As for “ATATTTACCACTGTATGTACATATATAAAATATATC [XGTACX_site6373]”, the figure is 7.23; as for “TATATATATAATATATGTACTGATATGCTATTTACT [XGTACX_site841]”, 8.03; as for “TAAAATAAAAGTGAAACACACAGTATTTTACAACAT [CACACA_site3811]”, 6.7.
Next, “AAAATAGCTGTATAGAGTACATATAAATAATGTTGT [XGTACX_site5692]”: 6.94; “TGCAAAAAATTCCACACACACACACGCATATAAATA [CACACA_site6696]”: 7.27; “TTTTGAAGAAAATTCTTTTTTTTTTTTTTTTGTAAA [CACACA_negctrl_site102]”: 6.62.
Consider “ATATAATGACAAGTATAAGTATCACAAAGAAATAAA [CACACA_negctrl_site1403]”, for which the “gcPBM binding intensity (ln)” value was 6.91.
For the sequence “CCACTTTTTGAAGACACACACAAAAAAAAAAAAAAA [CACACA_site2551]”, the “gcPBM binding intensity (ln)” value was 7.23.
Next, “CAAGCTTTTTCCTTTACACACATTAATTATATATAT [CACACA_site1423]”: 7.08; “ATAACAATTATTTGTCGACACACGTATATGTTATTT [CACACA_site1766]”: 7.
As for “CATTTTTCTATATGTGCATGTAAGATAAGAATAATT [TGCATGCA_site107]”, the figure is 8.22.
Next, “TCATATAATATTTATATGCACACTTTTCTATATATA [CACACA_site4075]”: 7.57; “TTTCGTCATTTTGTTTTTAATTCTACAATTTAGTTA [XGTACX_negctrl_site286]”: 7.11; “ACTTACACATTTATTACACACATAAAGGAAAATTTT [CACACA_site1356]”: 7.68.
As for “ATATTTAAATGGATCACACATATATATATATATATA [CACACA_site5255]”, the “gcPBM binding intensity (ln)” value came to 9.78.
As for “CACTAATAGTGGATTACACACATATATATGTATATA [CACACA_site2531]”, the figure is 7.18; as for “CGCGAAGTAGCATTCACACACAGCAAAATATATATA [CACACA_site3495]”, 7.11; as for “TACTAAAACCCATACACACACATATATATAGTACCA [CACACA_site3184]”, 7.05.
As for “TTTTTAACATTTAAATGTACATGTTACAATTTAAAG [XGTACX_site8789]”, the figure is 6.91; as for “TTTTTATTTTTATACATATAATATATTATGATTAAA [CACACA_negctrl_site214]”, 6.94.
Next, “ACAGCATAATCATGCTGTACATTATTTTCTTAAGTA [XGTACX_site8456]”: 6.7; “AGAGACTTAGAAAACACACATACATAAGATAATTTA [CACACA_site2377]”: 6.82.
Regarding “AATAAAATAATAAAAGCACACAAGAATACAGACAAA [CACACA_site112]”, the “gcPBM binding intensity (ln)” value is 7.22.
As for “ATGTAAAACATAAAATGTACATATTATACAAACTAT [XGTACX_site5797]”, the figure is 7.22; as for “TAAGTATAAATATTTACACACATTTGTTTTTTTTTA [CACACA_site7731]”, 6.89; as for “GGATAATATATTAGAACACACATATATCTGTAAAAA [CACACA_site4266]”, 6.84.
As for “TAATATAATATATGCACACAAATATGTATATATGTG [CACACA_site2134]”, the figure is 7.85.
Next, “AACTATTTTATTATATGTACTTACGAATTTATAAAA [XGTACX_site5262]”: 7.04; “TAATATACATAATAATGTACATATTTTCATATATAC [XGTACX_site6913]”: 7.01.
Regarding “CACAAAATAAATTAAACACACAACATCAGATATGTA [CACACA_site6529]”, the “gcPBM binding intensity (ln)” value came out at 6.9.
Next, “TGTGTTGTAACAAAATGTACGAGCTTGATGTAGAAT [XGTACX_site2293]”: 7.48; “ATAAACTGATGTGTATGTACACATGTAATAATAAAT [XGTACX_site7649]”: 7.28; “AATGTAGGTTTATTTACACACAAATATAAATATATA [CACACA_site1523]”: 6.84.
Next, “TATTTTTCTTTATTGGTACACACGAAAAAAAAATTG [CACACA_site3054]”: 7.14; “AAAATCCAGTTTTCAAAATTGAACAAAAAAAAAATA [GTGCAC_negctrl_site542]”: 6.64; “AAAAAAAAATTTAAGTGTACATTCCATTTTAGTTTA [XGTACX_site5286]”: 6.74.
Next, “AAAATATATATGTATGTTTATATGTTTATATATATT [XGTACX_negctrl_site337]”: 6.97; “TCTAAGTATAAAGACACACAGAATAAAAAAAAATAT [CACACA_site2367]”: 7.13.
Take “TATTTAATATATTTATGTACATATTTATTTATTATT [XGTACX_site524]”: the “gcPBM binding intensity (ln)” value is 6.87.
As for “AAGAAGCATAAATGTACACACATATTTATATATCAA [CACACA_site6743]”, the figure is 6.97.
Consider “AAAGGATATGGACACACACACACATATATATATATA [CACACA_site8686]”, for which the “gcPBM binding intensity (ln)” value turned out to be 9.2.
Next, “CAACACTTATTGAAACGTACGCATATAGTTTCTTTT [XGTACX_site8960]”: 6.9; “TTTATTTATATTTATACACACAAACATAATACTACT [CACACA_site7039]”: 7.03.
